According to PubChem BioAssay AID504339 (National Center for Advancing Translational Sciences (NCATS), 2011):
About 17,000 (4.4%) of roughly 390,000 compounds were called active. The inconclusive results got no clear call from the source; some entries with a clear call stand among them for comparison. Calls come from the whole dose curve; as a rule, active = well fitted inhibition curve with a large enough effect; inconclusive = small, poorly fitted or top-dose-only effect; inactive = no such curve, though single readings can be large or run the other way. A potency beside an inconclusive call is a rough fit, not a confirmed value.
% is set by controls: 0 for no effect and ±100 for the full control effect; potency is the fitted concentration of half-maximal effect; tags give direction and shape of the fitted curve.
Note: nearly all actives have a fitted effect of over 50% in size.

What follows are compounds tested against Lysine-specific demethylase 4A (Homo sapiens) (UniProt O75164) (assay: qHTS Assay for Inhibitors of JMJD2A-Tudor Domain). Details: AlphaScreen JMJD2A-Tudor / H3K4me3 peptide binding; activity change, negative = inhibition: at 114 µM (top of the series).
Chain of UniProt O75164 (O75164 whole entry, looked up, the tested form may be a part): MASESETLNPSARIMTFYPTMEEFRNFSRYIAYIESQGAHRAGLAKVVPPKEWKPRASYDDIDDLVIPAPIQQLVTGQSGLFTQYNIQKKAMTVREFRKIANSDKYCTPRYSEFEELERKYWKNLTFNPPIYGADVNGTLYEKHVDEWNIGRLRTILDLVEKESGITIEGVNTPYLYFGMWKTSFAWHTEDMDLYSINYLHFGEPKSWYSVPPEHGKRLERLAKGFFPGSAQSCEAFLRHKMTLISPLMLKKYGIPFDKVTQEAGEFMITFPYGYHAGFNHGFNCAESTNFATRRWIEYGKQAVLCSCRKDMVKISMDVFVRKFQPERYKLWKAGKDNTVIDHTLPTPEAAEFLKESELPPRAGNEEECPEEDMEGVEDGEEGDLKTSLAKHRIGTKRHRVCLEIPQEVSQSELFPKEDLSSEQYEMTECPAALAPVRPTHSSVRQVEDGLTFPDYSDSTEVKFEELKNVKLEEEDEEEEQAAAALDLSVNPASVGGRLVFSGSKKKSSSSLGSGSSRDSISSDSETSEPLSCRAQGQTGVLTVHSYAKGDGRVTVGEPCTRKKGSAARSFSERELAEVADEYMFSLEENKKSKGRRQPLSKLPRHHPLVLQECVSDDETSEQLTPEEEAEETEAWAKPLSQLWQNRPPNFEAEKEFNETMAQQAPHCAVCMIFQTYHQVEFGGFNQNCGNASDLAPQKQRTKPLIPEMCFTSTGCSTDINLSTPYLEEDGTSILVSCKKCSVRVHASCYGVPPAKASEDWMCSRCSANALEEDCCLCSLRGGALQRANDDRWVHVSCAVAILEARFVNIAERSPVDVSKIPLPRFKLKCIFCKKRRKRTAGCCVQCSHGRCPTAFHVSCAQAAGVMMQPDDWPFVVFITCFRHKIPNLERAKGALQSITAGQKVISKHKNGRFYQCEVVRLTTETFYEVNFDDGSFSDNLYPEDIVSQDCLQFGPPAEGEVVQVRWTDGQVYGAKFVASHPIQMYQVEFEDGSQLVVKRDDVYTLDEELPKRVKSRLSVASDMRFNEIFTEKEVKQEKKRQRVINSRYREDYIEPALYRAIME
With CCSC(=O)CCCCCCCCCCCO the activity change, negative = inhibition was inactive: 23.3% [at 11.4 µM]. COc1cc(/C=N/n2c(-c3ccccc3)n[nH]c2=S)cc(OC)c1OC was tested, and the Potency was active: 5.01 µM. In the case of COc1ccccc1N1CCN(CCNC(=O)Nc2cccc(C)c2C)CC1, the Potency is reported as inconclusive: 50.1 µM [inhibitor, partial curve]. With COCCn1c(=O)[nH]c(=O)c2c1nc(-c1ccc(-c3ccc(Cl)cc3[N+](=O)[O-])o1)n2Cc1ccccc1 the Potency was inconclusive: 31.6 µM [inhibitor, partial curve]. For CCOC(=O)c1cc(-c2ccc(F)cc2)n(CC(=O)Nc2nccs2)c1C, the Potency was inconclusive: 39.8 µM [inhibitor, partial curve]. For CC1(C)CC(=O)C/C(=N/Nc2nc3ccccc3s2)C1, the Potency was inconclusive: 50.1 µM [inhibitor, partial curve]. In the case of NN=C(c1cccc([N+](=O)[O-])c1)c1cccc([N+](=O)[O-])c1, the Potency is reported as inconclusive: 63.1 µM [inhibitor, partial curve]. For CCN(CC)S(=O)(=O)c1ccc(C)c(NC(=O)CSc2nc3ccc(C)cc3[nH]2)c1, the Potency was inconclusive: 70.8 µM [inhibitor, single point]. With CCOC(=O)c1ccc(NC(=S)N(CCCN2CCCCCC2)Cc2ccco2)cc1 the Potency was inconclusive: 56.2 µM [inhibitor, partial curve]. In the case of COC(=O)c1ccc(CN(C(C)=O)c2ccccc2)o1, the Potency is reported as inconclusive: 56.2 µM [inhibitor, partial curve, poor fit]. With COc1cc(NC(=O)c2noc3c2CCC3)c(OC)cc1Cl the Potency was active: 44.7 µM. With O=C(NC(c1ccccc1)c1ccccc1)c1ccc(S(=O)(=O)C(F)F)cc1 the “activity change, negative = inhibition” value was inactive: -7.43%. In the case of NNc1nc(-c2ccccc2)cs1, the Potency is reported as inconclusive: 31.6 µM [inhibitor, partial curve, poor fit]. With CN(CC(=O)Nc1ccccc1C(F)(F)F)C(=O)Cn1c(=O)oc2ccccc21 the “activity change, negative = inhibition” value was inactive: -5.41%. With c1ccc(C2NCCc3ccccc32)cc1 (configuration not stated) the Potency was inconclusive: 79.4 µM [inhibitor, partial curve]. Fc1ccc(Nc2nc(N3CCOCC3)nc(N3CCOCC3)n2)cc1 was tested, and the Potency was inconclusive: 100 µM [inhibitor, single point]. With Cc1cc(C)c2c(c1)/C(=N/NC(=O)c1ccc(O)cc1)CCC2 the “activity change, negative = inhibition” value was inactive: -13.8%. In the case of COc1ccc(-c2ccc3ncnc(NCc4nc(C)cs4)c3c2)cc1OC, the Potency is reported as inconclusive: 79.4 µM [inhibitor, partial curve]. With N#C/C(=C\c1ccc(O)c(O)c1)C(=O)N1CCCC1 the Potency was inconclusive: 28.2 µM [inhibitor, single point]. In the case of CC(C)C[C@@H](CN)NC(=O)c1nc[nH]c1C(=O)N[C@@H](C)C(=O)CNC[C@H](C)NC(=O)c1nc[nH]c1C(=O)N[C@@H](CC(C)C)C(=O)O, the Potency is reported as active: 50.1 µM. O=C(CC(=O)Nc1ccc(Cl)cc1)N/N=C\c1cccc(F)c1 was tested, and the “activity change, negative = inhibition” value was inactive: -10.6%. For CCOC(=O)c1ccc(N=C2C(=S)N(c3ccc(C(=O)OCC)cc3)C(=N)N2/N=C/c2ccccc2)cc1, the Potency was inconclusive: 3.55 µM [inhibitor, full curve, poor fit]. In the case of COC(=O)[C@@]12CCCCN1[C@H](c1ccc(-c3ccc4c(c3)OCO4)c(OC)c1)[C@@H]1C(=O)N(C)C(=O)[C@@H]12, the Potency is reported as inconclusive: 56.2 µM [inhibitor, partial curve]. With Cc1cc(C)c2cc3c(N)c(C(=O)Nc4c(C)[nH]c(=O)[nH]c4=O)sc3nc2c1 the Potency was inconclusive: 12.6 µM [inhibitor, full curve]. In the case of COC(=O)[C@H](C)NC(=O)Nc1ccccc1C(F)(F)F, the “activity change, negative = inhibition” value is reported as inactive: -3.73%. With O=C(c1cccc(S(=O)(=O)Nc2ccc(Br)cc2)c1)N1CCC1 the “activity change, negative = inhibition” value was inactive: -9.22%. N#Cc1c(NC(=O)c2cc([N+](=O)[O-])ccc2N2CCOCC2)sc2c1CCCC2 was tested, and the Potency was inconclusive: 39.8 µM [inhibitor, partial curve]. In the case of CCc1ccc(NC(=O)CCS(=O)(=O)c2ccc3c(c2)oc(=O)n3C)cc1, the “activity change, negative = inhibition” value is reported as inactive: -8.09%. With O=C1CC(c2ccc(Cl)cc2)SC(N(c2ccccc2)c2ccccc2)=N1 (configuration not stated) the “activity change, negative = inhibition” value was inactive: -23.6%. CC1NC(=O)NC1CCCCCC(=O)Nc1ccc(F)cc1 (configuration not stated) was tested, and the Potency was active: 0.316 µM. COc1cccc(NC(=O)CN(C)C(=O)c2ccc3c(c2)CC(c2ccccc2)OC3=O)c1 (configuration not stated) was tested, and the Potency was active: 89.1 µM. CCC1CCCCN1C(=O)CSc1nnc2nc(C)cc(C)n12 (configuration not stated) was tested, and the “activity change, negative = inhibition” value was inactive: -22.9%. With Cc1ccc(N2CC(c3nnc(Cc4ccc(F)cc4Cl)o3)CC2=O)cc1 (configuration not stated) the “activity change, negative = inhibition” value was inactive: 1.71%. For COc1ccc2c(c1)c(N1CCCC1=O)c(C(=O)Nc1ccc(Cl)cc1C)n2C, the “activity change, negative = inhibition” value was inactive: -13.4%. In the case of C=CCc1ccccc1OCC(O)CN1CCN(c2ccc(OC)cc2)CC1 (configuration not stated), the Potency is reported as active: 17.8 µM. In the case of CCOC(=O)c1ccc(OCC2c3cc(OC)c(OC)cc3CCN2C(=O)Cc2ccc(OC)c(OC)c2)cc1 (configuration not stated), the Potency is reported as inconclusive: 56.2 µM [inhibitor, partial curve]. Cc1ccc(-c2csc(=Nc3ccccc3)n2CCCO)cc1 was tested, and the Potency was active: 35.5 µM. CCCCn1c(-c2csc3c2CCCC3)n[nH]c1=S was tested, and the Potency was active: 39.8 µM. CCc1ccc(CN2C(=O)c3ccccc3C2C(=O)NC(C)CC)cc1 (configuration not stated) was tested, and the “activity change, negative = inhibition” value was inactive: -6.82%. In the case of COc1ccc(-c2[nH]c(-c3ccc(F)cc3)nc2SCC(=O)Nc2ccc(OC)c(OC)c2)cc1, the Potency is reported as inconclusive: 39.8 µM [inhibitor, partial curve]. c1ccc(CSc2ccc(-c3ccccn3)nn2)cc1 was tested, and the Potency was active: 7.94 µM. For Nc1cccc(Nc2ncnc3ccccc23)c1, the “activity change, negative = inhibition” value was inactive: 4.42%. For O=C(CSc1nnc(-c2ccco2)o1)N1CCN(c2ccccc2)CC1, the Potency was inconclusive: 35.5 µM [inhibitor, partial curve]. With CN(Cc1ccco1)c1ncnc2ccc(-c3ccc4c(ccn4C)c3)cc12 the Potency was inconclusive: 56.2 µM [inhibitor, partial curve]. In the case of COc1ccc(/C=N/N2CCN(Cc3ccccc3)CC2)cc1, the Potency is reported as inconclusive: 50.1 µM [inhibitor, partial curve]. Cc1cc(N)n(-c2ccc(Oc3ccccc3)c(S(=O)(=O)O)c2)n1 was tested, and the “activity change, negative = inhibition” value was inactive: -32.2%. With CCSc1oc(-c2cccs2)nc1S(=O)(=O)c1ccccc1 the Potency was active: 39.8 µM.
